From the supplement of paper PMC8728848
Some of the results follow.

Experiments:
Assay in all cases: glycan array binding signal (z-score within array); higher = stronger binding
Settings in all cases: glycan notation: IUPAC condensed, linker removed
[1] = molecular target: Gal(b1-4)GlcNAc(b1-2)Man(a1-6)[GlcNAc(b1-2)Man(a1-3)]Man(b1-4)GlcNAc(b1-4)GlcNAc
Outline: (§1)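 Glycan array binding is given as a within-array Z-score, which can be read as non-binding when negative. The arrays, 3228 of them, came from the Consortium for Functional Glycomics database and were retained only where the protein sequence was available. Z-scores were averaged across arrays of the same protein sequence at different concentrations or buffers and across linkers.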

[2] = molecular target: Gal(b1-4)GlcNAc(b1-2)Man(a1-6)[Man(a1-3)]Man(b1-4)GlcNAc(b1-4)GlcNAc
Outline: as §1

[3] = molecular target: Gal(b1-4)GlcNAc(b1-2)[Gal(b1-4)GlcNAc(b1-4)]Man(a1-3)[Gal(b1-4)GlcNAc(b1-2)Man(a1-6)]Man(b1-4)GlcNAc(b1-4)GlcNAc
Outline: as §1

[4] = molecular target: Gal(b1-4)GlcNAc(b1-2)[Gal(b1-4)GlcNAc(b1-4)]Man(a1-3)[Gal(b1-4)GlcNAc(b1-2)[Gal(b1-4)GlcNAc(b1-6)]Man(a1-6)]Man(b1-4)GlcNAc(b1-4)GlcNAc
Outline: as §1

[5] = molecular target: Gal(b1-4)GlcNAc(b1-2)[Gal(b1-4)GlcNAc(b1-4)]Man(a1-3)[GlcNAc(b1-4)][Gal(b1-4)GlcNAc(b1-2)Man(a1-6)]Man(b1-4)GlcNAc(b1-4)GlcNAc
Outline: as §1

[6] = molecular target: Gal(b1-4)GlcNAc(b1-2)[Gal(b1-4)GlcNAc(b1-4)]Man(a1-3)[GlcNAc(b1-4)][Gal(b1-4)GlcNAc(b1-2)[Gal(b1-4)GlcNAc(b1-6)]Man(a1-6)]Man(b1-4)GlcNAc(b1-4)GlcNAc
Outline: as §1

[7] = molecular target: Gal(b1-4)GlcNAc(b1-2)[Gal(b1-4)GlcNAc(b1-6)]Man(a1-6)[Gal(b1-4)GlcNAc(b1-2)Man(a1-3)]Man(b1-4)GlcNAc(b1-4)GlcNAc
Outline: as §1

[8] = molecular target: Gal(b1-4)GlcNAc(b1-2)[Gal(b1-4)GlcNAc(b1-6)]Man(a1-6)[Gal(b1-4)GlcNAc(b1-2)Man(a1-3)]Man(b1-4)GlcNAc(b1-4)[Fuc(a1-6)]GlcNAc
Outline: as §1

[9] = molecular target: Gal(b1-4)GlcNAc(b1-2)[Gal(b1-4)GlcNAc(b1-6)]Man(a1-6)[GlcNAc(b1-4)][Gal(b1-4)GlcNAc(b1-2)Man(a1-3)]Man(b1-4)GlcNAc(b1-4)GlcNAc
Outline: as §1

[10] = molecular target: Gal(b1-4)GlcNAc(b1-2)[Gal(b1-4)GlcNAc(b1-6)]Man(a1-6)[GlcNAc(b1-4)][Gal(b1-4)GlcNAc(b1-2)[Gal(b1-4)GlcNAc(b1-4)]Man(a1-3)]Man(b1-4)GlcNAc(b1-4)[Fuc(a1-6)]GlcNAc
Outline: as §1

[11] = molecular target: Gal(b1-4)GlcNAc(b1-3)Gal(b1-3)GalNAc
Outline: as §1

[12] = molecular target: Gal(b1-4)GlcNAc(b1-3)Gal(b1-3)GlcNAc
Outline: as §1

[13] = molecular target: Gal(b1-4)GlcNAc(b1-3)Gal(b1-4)Glc
Outline: as §1

[14] = molecular target: Gal(b1-4)GlcNAc(b1-3)Gal(b1-4)GlcNAc
Outline: as §1

[15] = molecular target: Gal(b1-4)GlcNAc(b1-3)Gal(b1-4)GlcNAc(b1-2)Man(a1-3)[Gal(b1-4)GlcNAc(b1-3)Gal(b1-4)GlcNAc(b1-2)Man(a1-6)]Man(b1-4)GlcNAc(b1-4)GlcNAc
Outline: as §1

[16] = molecular target: Gal(b1-4)GlcNAc(b1-3)Gal(b1-4)GlcNAc(b1-2)Man(a1-3)[Gal(b1-4)GlcNAc(b1-3)Gal(b1-4)GlcNAc(b1-2)Man(a1-6)]Man(b1-4)GlcNAc(b1-4)[Fuc(a1-6)]GlcNAc
Outline: as §1

[17] = molecular target: Gal(b1-4)GlcNAc(b1-3)Gal(b1-4)GlcNAc(b1-2)[Gal(b1-4)GlcNAc(b1-3)Gal(b1-4)GlcNAc(b1-6)]Man(a1-6)[Gal(b1-4)GlcNAc(b1-3)Gal(b1-4)GlcNAc(b1-2)Man(a1-3)]Man(b1-4)GlcNAc(b1-4)GlcNAc
Outline: as §1

[18] = molecular target: Gal(b1-4)GlcNAc(b1-3)Gal(b1-4)GlcNAc(b1-2)[Gal(b1-4)GlcNAc(b1-3)Gal(b1-4)GlcNAc(b1-6)]Man(a1-6)[Gal(b1-4)GlcNAc(b1-3)Gal(b1-4)GlcNAc(b1-2)Man(a1-3)]Man(b1-4)GlcNAc(b1-4)[Fuc(a1-6)]GlcNAc
Outline: as §1

[19] = molecular target: Gal(b1-4)GlcNAc(b1-3)Gal(b1-4)GlcNAc(b1-3)Gal(b1-4)GlcNAc
Outline: as §1

[20] = molecular target: Gal(b1-4)GlcNAc(b1-3)Gal(b1-4)GlcNAc(b1-3)Gal(b1-4)GlcNAc(b1-2)Man(a1-3)[Gal(b1-4)GlcNAc(b1-3)Gal(b1-4)GlcNAc(b1-3)Gal(b1-4)GlcNAc(b1-2)Man(a1-6)]Man(b1-4)GlcNAc(b1-4)GlcNAc
Outline: as §1

[21] = molecular target: Gal(b1-4)GlcNAc(b1-3)Gal(b1-4)GlcNAc(b1-3)Gal(b1-4)GlcNAc(b1-2)Man(a1-3)[Gal(b1-4)GlcNAc(b1-3)Gal(b1-4)GlcNAc(b1-3)Gal(b1-4)GlcNAc(b1-2)Man(a1-6)]Man(b1-4)GlcNAc(b1-4)[Fuc(a1-6)]GlcNAc
Outline: as §1

[22] = molecular target: Gal(b1-4)GlcNAc(b1-3)Gal(b1-4)GlcNAc(b1-3)Gal(b1-4)GlcNAc(b1-2)[Gal(b1-4)GlcNAc(b1-3)Gal(b1-4)GlcNAc(b1-3)Gal(b1-4)GlcNAc(b1-6)]Man(a1-6)[Gal(b1-4)GlcNAc(b1-3)Gal(b1-4)GlcNAc(b1-3)Gal(b1-4)GlcNAc(b1-2)Man(a1-3)]Man(b1-4)GlcNAc(b1-4)[Fuc(a1-6)]GlcNAc
Outline: as §1

B1: Dectin2 (Homo sapiens), Q6EIG7 (protein)
chain: MMQEQQPQSTEKRGWLSLRLWSVAGISIALLSACFIVSCVVTYHFTYGETGKRLSELHSYHSSLTCFSEGTKVPAWGCCPASWKSFGSSCYFISSEEKVWSKSEQNCVEMGAHLVVFNTEAEQNFIVQQLNESFSYFLGLSDPQGNNNWQWIDKTPYEKNVRFWHLGEPNHSAEQCASIVFWKPTGWGWNDVICETRRNSICEMNKIYL
- glycan array binding signal (z-score) [1]: -0.191
- glycan array binding signal (z-score) [2]: -0.207
- glycan array binding signal (z-score) [3]: 0.09
- glycan array binding signal (z-score) [4]: -0.187
- glycan array binding signal (z-score) [5]: -0.148
- glycan array binding signal (z-score) [6]: -0.17
- glycan array binding signal (z-score) [7]: -0.135
- glycan array binding signal (z-score) [8]: -0.093
- glycan array binding signal (z-score) [9]: -0.138
- glycan array binding signal (z-score) [10]: -0.138
- glycan array binding signal (z-score) [11]: -0.202
- glycan array binding signal (z-score) [12]: 0.194
- glycan array binding signal (z-score) [13]: -0.151
- glycan array binding signal (z-score) [14]: -0.206
- glycan array binding signal (z-score) [15]: 0.613
- glycan array binding signal (z-score) [16]: -0.105
- glycan array binding signal (z-score) [17]: 0.147
- glycan array binding signal (z-score) [18]: -0.033
- glycan array binding signal (z-score) [19]: -0.191
- glycan array binding signal (z-score) [20]: 0.27
- glycan array binding signal (z-score) [21]: -0.086
- glycan array binding signal (z-score) [22]: -0.002
